Patent US7691374B2, “Method for increasing the efficacy of anti-tumor agents by anti-endoglin antibody” (Health Research, Inc., priority 2002, dated 2010)
Like-named read-outs stand apart in the source and are kept apart here.

Test system: MCF-7 human breast cancer tumors
Settings: SN6j 100 μg/25 g i.v., DOX 25 μg/25 g i.p.

`COc1cccc2c1C(=O)c1c(O)c3c(c(O)c1C2=O)C[C@@](O)(C(=O)CO)C[C@@H]3O[C@H]1C[C@H](N)[C@H](O)[C@H](C)O1` [DOX, Doxorubicin] was tested, and the “Fractional Tumor Volume (FTV) Relative to MOPC + Saline Group” value (Day 21.0 after tumor cell inoculation) was 0.993, the “Fractional Tumor Volume (FTV) Relative to MOPC + Saline Group” value (Day 26.0 after tumor cell inoculation) was 0.967 and the “Fractional Tumor Volume (FTV) Relative to MOPC + Saline Group” value (Day 29.0 after tumor cell inoculation) was 0.980. For the same compound, the “Fractional Tumor Volume (FTV) Relative to MOPC + Saline Group” value (Day 33.0 after tumor cell inoculation) was 0.900 and the “Fractional Tumor Volume (FTV) Relative to MOPC + Saline Group” value (Day 36.0 after tumor cell inoculation) was 0.856.
